Some of the results follow. The list includes weakly bound sequences.
Target: T1, MBP-FoxP3dN (UniProt Q99JB6)
T1 sequence: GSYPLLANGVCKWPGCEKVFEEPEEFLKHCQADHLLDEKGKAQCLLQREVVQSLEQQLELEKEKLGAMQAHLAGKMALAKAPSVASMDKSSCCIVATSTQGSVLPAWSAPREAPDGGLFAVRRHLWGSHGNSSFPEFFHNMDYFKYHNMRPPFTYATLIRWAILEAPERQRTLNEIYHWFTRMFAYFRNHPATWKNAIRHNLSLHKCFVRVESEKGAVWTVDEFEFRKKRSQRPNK
Test: PD-seq (MBP pull-down with sequencing)
Conditions: 20 mM Tris-HCl pH 7.5, 100 mM NaCl, 1.5 mM MgCl2, 0.4 uM protein, 0.1 uM dsDNA library, 30 min, room temperature, amylose pull-down; high values mean tight binding; double strand, one strand shown

Sequence	binding signal (RPM ratio (pull-down/input))
GATGATTGTTCTCCCAGCTGATGAATTACGATTTTCGAGTAAACAAATTTTCCTAATCTTTCTGTTCAAGCGCCATCTAC	0.842
GATGATTGTTCTCCCAGCTGATGAATTGTGACCGTCGAGTAAACAAATTTTCCTAATCTTTCTGTTCAAGCGCCATCTAC	0.687
GATGATTGTTCTCCCAGCTGATGAATTGTGGTAATCGAGTAAACAAATTTTCCTAATCTTTCTGTTCAAGCGCCATCTAC	1.1
GATGATTGTTCTCCCAGCTGATGAATTTGTAACTTCGAGTAAACAAATTTTCCTAATCTTTCTGTTCAAGCGCCATCTAC	1.47
GATGATTGTTCTCCCAGCTGATGAATTCACACAATCGAGTAAACAAATTTTCCTAATCTTTCTGTTCAAGCGCCATCTAC	0.448
GATGATTGTTCTCCCAGCTGATGAATTCTAAGATTCGAGTAAACAAATTTTCCTAATCTTTCTGTTCAAGCGCCATCTAC	0.232
GATGATTGTTCTCCCAGCTGATGAATTTAGAGGATCGAGTAAACAAATTTTCCTAATCTTTCTGTTCAAGCGCCATCTAC	0.299
GATGATTGTTCTCCCAGCTGATGAATTTCCCACTTCGAGTAAACAAATTTTCCTAATCTTTCTGTTCAAGCGCCATCTAC	0.261
GATGATTGTTCTCCCAGCTGATGAATTCTCCCATTCGAGTAAACAAATTTTCCTAATCTTTCTGTTCAAGCGCCATCTAC	0.243
GATGATTGTTCTCCCAGCTGATGAATTATCCGATTCGAGTAAACAAATTTTCCTAATCTTTCTGTTCAAGCGCCATCTAC	0.279
GATGATTGTTCTCCCAGCTGATGAATTTTACAGCTCGAGTAAACAAATTTTCCTAATCTTTCTGTTCAAGCGCCATCTAC	0.304
GATGATTGTTCTCCCAGCTGATGAATTTGAAATCTCGAGTAAACAAATTTTCCTAATCTTTCTGTTCAAGCGCCATCTAC	0.298
GATGATTGTTCTCCCAGCTGATGAATTCGGCCGATCGAGTAAACAAATTTTCCTAATCTTTCTGTTCAAGCGCCATCTAC	0.438
GATGATTGTTCTCCCAGCTGATGAATTTATCTGTTCGAGTAAACAAATTTTCCTAATCTTTCTGTTCAAGCGCCATCTAC	0.835
GATGATTGTTCTCCCAGCTGATGAATTGGTGGACTCGAGTAAACAAATTTTCCTAATCTTTCTGTTCAAGCGCCATCTAC	0.694
GATGATTGTTCTCCCAGCTGATGAATTCGACAGGTCGAGTAAACAAATTTTCCTAATCTTTCTGTTCAAGCGCCATCTAC	0.284
GATGATTGTTCTCCCAGCTGATGAATTGTCCACGTCGAGTAAACAAATTTTCCTAATCTTTCTGTTCAAGCGCCATCTAC	0.337
GATGATTGTTCTCCCAGCTGATGAATTTATCCTCTCGAGTAAACAAATTTTCCTAATCTTTCTGTTCAAGCGCCATCTAC	0.839
GATGATTGTTCTCCCAGCTGATGAATTGCCCAAATCGAGTAAACAAATTTTCCTAATCTTTCTGTTCAAGCGCCATCTAC	0.385
GATGATTGTTCTCCCAGCTGATGAATTCTCCGCCTCGAGTAAACAAATTTTCCTAATCTTTCTGTTCAAGCGCCATCTAC	0.428
GATGATTGTTCTCCCAGCTGATGAATTCACTGCGTCGAGTAAACAAATTTTCCTAATCTTTCTGTTCAAGCGCCATCTAC	0.48

Sequence	binding signal (RPM ratio (pull-down/input))
GATGATTGTTCTCCCAGCTGATGAATTTCCATACTCGAGTAAACAAATTTTCCTAATCTTTCTGTTCAAGCGCCATCTAC	0.355
GATGATTGTTCTCCCAGCTGATGAATTACTTGCATCGAGTAAACAAATTTTCCTAATCTTTCTGTTCAAGCGCCATCTAC	1.25
GATGATTGTTCTCCCAGCTGATGAATTTTATTATTCGAGTAAACAAATTTTCCTAATCTTTCTGTTCAAGCGCCATCTAC	5.53
GATGATTGTTCTCCCAGCTGATGAATTGGTCGCATCGAGTAAACAAATTTTCCTAATCTTTCTGTTCAAGCGCCATCTAC	1.1
GATGATTGTTCTCCCAGCTGATGAATTACTGGTGTCGAGTAAACAAATTTTCCTAATCTTTCTGTTCAAGCGCCATCTAC	0.479
GATGATTGTTCTCCCAGCTGATGAATTCAAGTCCTCGAGTAAACAAATTTTCCTAATCTTTCTGTTCAAGCGCCATCTAC	0.326
GATGATTGTTCTCCCAGCTGATGAATTGGCACCCTCGAGTAAACAAATTTTCCTAATCTTTCTGTTCAAGCGCCATCTAC	0.365
GATGATTGTTCTCCCAGCTGATGAATTCAAATGATCGAGTAAACAAATTTTCCTAATCTTTCTGTTCAAGCGCCATCTAC	0.268
GATGATTGTTCTCCCAGCTGATGAATTAATCCGTTCGAGTAAACAAATTTTCCTAATCTTTCTGTTCAAGCGCCATCTAC	0.306
GATGATTGTTCTCCCAGCTGATGAATTCTGCAATTCGAGTAAACAAATTTTCCTAATCTTTCTGTTCAAGCGCCATCTAC	4.83
GATGATTGTTCTCCCAGCTGATGAATTCCCAATATCGAGTAAACAAATTTTCCTAATCTTTCTGTTCAAGCGCCATCTAC	0.388
GATGATTGTTCTCCCAGCTGATGAATTTGCTCGGTCGAGTAAACAAATTTTCCTAATCTTTCTGTTCAAGCGCCATCTAC	0.383
GATGATTGTTCTCCCAGCTGATGAATTACGCCGGTCGAGTAAACAAATTTTCCTAATCTTTCTGTTCAAGCGCCATCTAC	0.649
GATGATTGTTCTCCCAGCTGATGAATTGCATAATTCGAGTAAACAAATTTTCCTAATCTTTCTGTTCAAGCGCCATCTAC	0.889
GATGATTGTTCTCCCAGCTGATGAATTTCGGACATCGAGTAAACAAATTTTCCTAATCTTTCTGTTCAAGCGCCATCTAC	0.402
GATGATTGTTCTCCCAGCTGATGAATTGAATGGGTCGAGTAAACAAATTTTCCTAATCTTTCTGTTCAAGCGCCATCTAC	0.399
GATGATTGTTCTCCCAGCTGATGAATTGGACATCTCGAGTAAACAAATTTTCCTAATCTTTCTGTTCAAGCGCCATCTAC	0.583
GATGATTGTTCTCCCAGCTGATGAATTAGGGATCTCGAGTAAACAAATTTTCCTAATCTTTCTGTTCAAGCGCCATCTAC	0.41
GATGATTGTTCTCCCAGCTGATGAATTACCTTAATCGAGTAAACAAATTTTCCTAATCTTTCTGTTCAAGCGCCATCTAC	0.256
GATGATTGTTCTCCCAGCTGATGAATTGATGACGTCGAGTAAACAAATTTTCCTAATCTTTCTGTTCAAGCGCCATCTAC	0.587
GATGATTGTTCTCCCAGCTGATGAATTTAAGTCGTCGAGTAAACAAATTTTCCTAATCTTTCTGTTCAAGCGCCATCTAC	0.452

Sequence	binding signal (RPM ratio (pull-down/input))
GATGATTGTTCTCCCAGCTGATGAATTATAACGATCGAGTAAACAAATTTTCCTAATCTTTCTGTTCAAGCGCCATCTAC	0.391
GATGATTGTTCTCCCAGCTGATGAATTCCTACTTTCGAGTAAACAAATTTTCCTAATCTTTCTGTTCAAGCGCCATCTAC	0.281
GATGATTGTTCTCCCAGCTGATGAATTATCTCCTTCGAGTAAACAAATTTTCCTAATCTTTCTGTTCAAGCGCCATCTAC	0.3
GATGATTGTTCTCCCAGCTGATGAATTCACCCACTCGAGTAAACAAATTTTCCTAATCTTTCTGTTCAAGCGCCATCTAC	0.333
GATGATTGTTCTCCCAGCTGATGAATTATTGGTTTCGAGTAAACAAATTTTCCTAATCTTTCTGTTCAAGCGCCATCTAC	1.97
GATGATTGTTCTCCCAGCTGATGAATTCTGGGCATCGAGTAAACAAATTTTCCTAATCTTTCTGTTCAAGCGCCATCTAC	0.572
GATGATTGTTCTCCCAGCTGATGAATTTTCAACATCGAGTAAACAAATTTTCCTAATCTTTCTGTTCAAGCGCCATCTAC	0.465
GATGATTGTTCTCCCAGCTGATGAATTCAGTAGGTCGAGTAAACAAATTTTCCTAATCTTTCTGTTCAAGCGCCATCTAC	0.419
GATGATTGTTCTCCCAGCTGATGAATTGTATGGTTCGAGTAAACAAATTTTCCTAATCTTTCTGTTCAAGCGCCATCTAC	1.94
GATGATTGTTCTCCCAGCTGATGAATTCTCGCCGTCGAGTAAACAAATTTTCCTAATCTTTCTGTTCAAGCGCCATCTAC	0.493
GATGATTGTTCTCCCAGCTGATGAATTTGCTCGTTCGAGTAAACAAATTTTCCTAATCTTTCTGTTCAAGCGCCATCTAC	0.725
GATGATTGTTCTCCCAGCTGATGAATTGCTCACTTCGAGTAAACAAATTTTCCTAATCTTTCTGTTCAAGCGCCATCTAC	0.581
GATGATTGTTCTCCCAGCTGATGAATTGCCCGCGTCGAGTAAACAAATTTTCCTAATCTTTCTGTTCAAGCGCCATCTAC	0.671
GATGATTGTTCTCCCAGCTGATGAATTAATCGATTCGAGTAAACAAATTTTCCTAATCTTTCTGTTCAAGCGCCATCTAC	0.346
GATGATTGTTCTCCCAGCTGATGAATTCTCATAGTCGAGTAAACAAATTTTCCTAATCTTTCTGTTCAAGCGCCATCTAC	0.265
GATGATTGTTCTCCCAGCTGATGAATTGCGGAGGTCGAGTAAACAAATTTTCCTAATCTTTCTGTTCAAGCGCCATCTAC	0.483
GATGATTGTTCTCCCAGCTGATGAATTCTTCTCATCGAGTAAACAAATTTTCCTAATCTTTCTGTTCAAGCGCCATCTAC	0.242
GATGATTGTTCTCCCAGCTGATGAATTCACATAATCGAGTAAACAAATTTTCCTAATCTTTCTGTTCAAGCGCCATCTAC	0.306
GATGATTGTTCTCCCAGCTGATGAATTAAACTTTTCGAGTAAACAAATTTTCCTAATCTTTCTGTTCAAGCGCCATCTAC	0.354
GATGATTGTTCTCCCAGCTGATGAATTAAAGGTTTCGAGTAAACAAATTTTCCTAATCTTTCTGTTCAAGCGCCATCTAC	0.403
GATGATTGTTCTCCCAGCTGATGAATTAGTGGAATCGAGTAAACAAATTTTCCTAATCTTTCTGTTCAAGCGCCATCTAC	0.336
